The IC50 comes from the fitted curve, where viability falls to half of the control; fits outside the tested doses are given as limits. AUC, from the same fit, is the share of area under the viability curve across the 256-fold dose range; the more sensitive the line, the further below 1. For some of these results: Any top dose called inferred comes from the curve model; the source does not state it. For some of these results: An entry number marks a drug with two screens in the source, which often give different values.
Columns and labels:
Experiment in all cases: Viability of human cancer cell lines after 72 h of drug (GDSC screen)
PF-562271 = compound: CN(c1ncccc1CNc1nc(Nc2ccc3c(c2)CC(=O)N3)ncc1C(F)(F)F)S(C)(=O)=O [PF-562271]; details: top dose 2.56 µM; top dose inferred
Method: (§1)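 Human cancer cell lines in 384-well plates, medium with 10% serum, drug for 72 h over a 256-fold dose range (nine 2-fold or five 4-fold steps up to the top dose). Adherent lines were fixed and stained with the nucleic acid dye Syto60, suspension lines read with resazurin; signal relative to control wells, capped at 0 and 100%. One two-parameter sigmoid per drug and line, fitted in a mixed model over all curves with the slope shared within a line.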

Afatinib = compound: CN(C)C/C=C/C(=O)Nc1cc2c(Nc3ccc(F)c(Cl)c3)ncnc2cc1O[C@H]1CCOC1 [Afatinib]
Method: as §1

Vinblastine = compound: CC[C@]1(O)C[C@@H]2CN(CCc3c([nH]c4ccccc34)[C@@](C(=O)OC)(c3cc4c(cc3OC)N(C)[C@H]3[C@@](O)(C(=O)OC)[C@H](OC(C)=O)[C@]5(CC)C=CCN6CC[C@]43[C@@H]65)C2)C1 [Vinblastine]; details: top dose 0.1 µM; top dose inferred
Method: as §1

SNX-2112 = compound: CC1(C)CC(=O)c2c(C(F)(F)F)nn(-c3ccc(C(N)=O)c(N[C@H]4CC[C@H](O)CC4)c3)c2C1 [SNX-2112]; details: top dose 2.56 µM
Method: as §1

XMD13-2 = compound: O=C(NC1CC1)c1cccc(-c2ccc3c(NC(=O)C4CC4)n[nH]c3c2)c1 [XMD13-2]; details: top dose 10.24 µM; top dose inferred
Method: as §1

[1] = top dose 0.5 µM, screen: GDSC drug entry 1032
[2] = top dose 10 µM, screen: GDSC drug entry 1377, top dose inferred

Row | Cell Line | AUC (PF-562271) | IC50 (PF-562271) [nM] | AUC (Afatinib; [1]) | IC50 (Afatinib; [1]) [nM] | AUC (Afatinib; [2]) | IC50 (Afatinib; [2]) [nM] | AUC (Vinblastine) | IC50 (Vinblastine) [nM] | AUC (SNX-2112) | IC50 (SNX-2112) [nM] | AUC (XMD13-2) | IC50 (XMD13-2) [nM]
1 | TGBC1TKB (biliary tract, adherent) | 0.947 | > 2560 | 0.986 | > 500 | 0.977 | > 10000 | 0.733 | 28.6 | 0.948 | > 2560 | 0.985 | > 10200
2 | TGBC11TKB (stomach, adherent) | 0.983 | > 2560 | 0.99 | > 500 | 0.976 | > 10000 | 0.709 | 22.4 | 0.511 | 170 | 0.983 | > 10200
3 | TGW (neuroblastoma, adherent) | 0.959 | > 2560 | 0.991 | > 500 | 0.984 | > 10000 | 0.762 | 31.1 | 0.363 | 70.9 | 0.903 | 10200
4 | TOV-21G (ovary, adherent) | 0.985 | > 2560 | 0.897 | > 500 | 0.88 | > 10000 | 0.451 | 4.54 | 0.894 | > 2560 | 0.985 | > 10200
5 | TOV-112D (ovary, adherent) | 0.859 | 2150 | 0.925 | > 500 | 0.736 | 2960 | 0.524 | 7.26 | 0.455 | 121 | 0.845 | 7490
6 | TT2609-C02 (thyroid, adherent) | 0.806 | 1400 | 0.96 | > 500 | 0.983 | > 10000 | 0.541 | 8.14 | 0.533 | 198 | 0.979 | > 10200
7 | TT (thyroid, adherent) | 0.977 | > 2560 | 0.972 | > 500 | 0.978 | > 10000 | 0.908 | > 100 | 0.905 | > 2560 | 0.983 | > 10200
8 | TUR (B-cell lymphoma, suspension) | 0.895 | > 2560 | 0.985 | > 500 | 0.933 | > 10000 | 0.38 | 3 | 0.255 | 34.1 | 0.786 | 4040
9 | TYK-nu (ovary, adherent) | 0.945 | > 2560 | 0.985 | > 500 | 0.983 | > 10000 | 0.547 | 8.48 | 0.947 | > 2560 | 0.985 | > 10200
10 | U251 (glioma, adherent) | 0.839 | 1630 | 0.982 | > 500 | 0.975 | > 10000 | 0.554 | 8.74 | 0.277 | 38.6 | 0.766 | 3620
11 | U-87-MG (glioma, adherent) | 0.969 | > 2560 | 0.924 | > 500 | 0.419 | 361 | 0.704 | 26.2 | 0.6 | 316 | 0.98 | > 10200
12 | U-118-MG (glioma, adherent) | 0.981 | > 2560 | 0.984 | > 500 | 0.982 | > 10000 | 0.706 | 26.3 | 0.531 | 197 | 0.974 | > 10200
13 | U-698-M (B-cell leukaemia, suspension) | 0.952 | > 2560 | 0.987 | > 500 | 0.942 | > 10000 | 0.364 | 2.64 | 0.335 | 55.6 | 0.888 | > 10200
14 | UACC-62 (melanoma, adherent) | 0.896 | > 2560 | 0.965 | > 500 | 0.969 | > 10000 | 0.509 | 6.6 | 0.97 | > 2560 | 0.962 | > 10200
15 | UACC-257 (melanoma, adherent) | 0.93 | > 2560 | 0.981 | > 500 | 0.944 | > 10000 | 0.797 | 61 | 0.835 | 2310 | 0.921 | > 10200
16 | UACC-893 (breast, adherent) | 0.981 | > 2560 | 0.667 | 107 | 0.501 | 629 | 0.763 | 48.2 | 0.828 | 2360 | 0.941 | > 10200
17 | UM-UC-3 (bladder, adherent) | 0.972 | > 2560 | 0.987 | > 500 | 0.971 | > 10000 | 0.553 | 8.64 | 0.321 | 52.6 | 0.941 | > 10200
18 | UMC-11 (lung carcinoid, adherent) | 0.953 | > 2560 | 0.988 | > 500 | 0.987 | > 10000 | 0.801 | 42.9 | 0.745 | 735 | 0.93 | > 10200
19 | VA-ES-BJ (soft tissue, adherent) | 0.841 | 1930 | 0.984 | > 500 | 0.976 | > 10000 | 0.429 | 3.95 | 0.867 | 2540 | 0.962 | > 10200

Row | Cell Line | AUC (PF-562271) | IC50 (PF-562271) [nM] | AUC (Afatinib; [1]) | IC50 (Afatinib; [1]) [nM] | AUC (Afatinib; [2]) | IC50 (Afatinib; [2]) [nM] | AUC (Vinblastine) | IC50 (Vinblastine) [nM] | AUC (SNX-2112) | IC50 (SNX-2112) [nM] | AUC (XMD13-2) | IC50 (XMD13-2) [nM]
20 | VAL (B-cell lymphoma, suspension) | 0.959 | > 2560 | 0.98 | > 500 | 0.964 | > 10000 | 0.632 | 14.5 | 0.274 | 36.4 | 0.695 | 2260
21 | VCaP (prostate, adherent) | 0.935 | > 2560 | 0.981 | > 500 | 0.984 | > 10000 | 0.602 | 12 | 0.851 | 2080 | 0.896 | > 10200
22 | VMRC-MELG (melanoma, adherent) | 0.874 | > 2560 | 0.988 | > 500 | 0.988 | > 10000 | 0.813 | 56.9 | 0.61 | 325 | 0.987 | > 10200
23 | VMRC-RCW (kidney, adherent) | 0.987 | > 2560 | 0.966 | > 500 | – | – | 0.891 | > 100 | 0.894 | > 2560 | 0.987 | > 10200
24 | VMRC-RCZ (kidney, adherent) | 0.907 | > 2560 | 0.907 | > 500 | 0.956 | > 10000 | 0.684 | 22.4 | 0.852 | 2500 | 0.94 | > 10200
25 | WIL2-NS (lymphoid neoplasm, suspension) | 0.946 | > 2560 | 0.981 | > 500 | 0.979 | > 10000 | 0.568 | 9.24 | 0.176 | 22 | 0.771 | 3230
26 | WM35 (melanoma, adherent) | 0.664 | 459 | 0.461 | 24.4 | 0.967 | > 10000 | 0.366 | 2.66 | 0.312 | 47.5 | 0.811 | 5510
27 | WM278 (melanoma, adherent) | 0.799 | 1410 | 0.978 | > 500 | 0.982 | > 10000 | 0.51 | 6.67 | 0.305 | 42.1 | 0.974 | > 10200
28 | WM793B (melanoma, adherent) | 0.884 | > 2560 | 0.948 | > 500 | 0.967 | > 10000 | 0.597 | 11.9 | 0.34 | 54.6 | 0.924 | > 10200
29 | WM1552C (melanoma, adherent) | 0.895 | > 2560 | 0.982 | > 500 | 0.97 | > 10000 | 0.725 | 27.4 | 0.91 | > 2560 | 0.922 | > 10200
30 | WM-115 (melanoma, adherent) | 0.968 | > 2560 | 0.963 | > 500 | 0.979 | > 10000 | 0.541 | 8.31 | 0.436 | 103 | 0.861 | > 10200
31 | WSU-DLCL2 (B-cell lymphoma, suspension) | 0.992 | > 2560 | 0.993 | > 500 | 0.979 | > 10000 | 0.406 | 3.62 | 0.894 | 2160 | 0.918 | > 10200
32 | WSU-NHL (lymphoid neoplasm, suspension) | 0.936 | > 2560 | 0.968 | > 500 | 0.99 | > 10000 | 0.365 | 2.78 | 0.237 | 31.1 | 0.929 | > 10200
33 | YAPC (pancreas, adherent) | 0.913 | > 2560 | 0.94 | > 500 | 0.848 | > 10000 | 0.85 | > 100 | 0.795 | 1530 | 0.973 | > 10200
34 | YKG-1 (glioma, adherent) | 0.931 | > 2560 | 0.916 | > 500 | 0.98 | > 10000 | 0.514 | 6.85 | 0.633 | 376 | 0.89 | > 10200
35 | YT (lymphoid neoplasm, suspension) | 0.96 | > 2560 | 0.97 | > 500 | 0.991 | > 10000 | 0.965 | > 100 | 0.2 | 25 | 0.86 | 6590
36 | no-10 (glioma, adherent) | 0.811 | 1760 | 0.964 | > 500 | 0.94 | > 10000 | 0.874 | > 100 | 0.935 | > 2560 | 0.958 | > 10200
37 | no-11 (glioma, adherent) | 0.959 | > 2560 | 0.931 | > 500 | 0.974 | > 10000 | 0.701 | 26.8 | 0.528 | 195 | 0.935 | > 10200
